Test results reported in the supplement of paper PMC12217912.
The other results are listed elsewhere or left out. Sequences were assembled here from the parent chain. Values near 0.05 are background.

B1: TEV protease; numbered along this chain (parent)
chain: MGESLFKGPRDYNPISSSICHLTNESDGHTTSLYGIGFGPFIITNKHLFRRNNGTLVVQSLHGVFKVKDTTTLQQHLVDGRDMIIIRMPKDFPPFPQKLKFREPQREERICLVTTNFQTKSMSSMVSDTSCTFPSGDGIFWKHWIQTKDGQCGSPLVSTRDGFIVGIHSASNFTNTNNYFTSVPKNFMELLTNQEAQQWVSGWRLNADSVLWGGHKVFMVKPEEPFQPVKEATQL

Variants of: B1
Assay: raw area under fraction-flipped curve 0-4 h after induction (AUC4h, not background-subtracted), DNA-recorder readout of cleavage of the substrate (dimensionless); higher = more cleavage of the substrate by the protease variant
Conditions: temperature: 34 °C; time window: 0-4 h after rhamnose induction
Method: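 In vivo DNA recorder in E. coli TOP10(DE3) ΔrhaA at 34 °C. Each TEVp single-site mutant (parent TEVp 0) is paired with a single-site variant of the 7-mer TEVs (canonical ENLYFQ|S). The substrate sits between flexible linkers in a Bxb1-sfGFP-TEVs-SsrA fusion, so cleavage stabilises Bxb1 and speeds flipping of a recombination array, read by NGS. The value is the raw area under the fraction-flipped curve over 0-4 h after rhamnose induction (AUC4h), with ≥20 reads per time point. It is not background-subtracted; inactive controls average about 0.047.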
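Note: Bxb1 expression induced with 0.2% (w/v) L-rhamnose at OD600 near 0.5, cultures sampled hourly, flipped fraction per protease–substrate barcode pair counted by paired-end Illumina sequencing.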

| Variant | area with substrate EALYFQS | area with substrate ECLYFQS | area with substrate EELYFQS | area with substrate EGLYFQS | area with substrate EHLYFQS | area with substrate EILYFQS | area with substrate EKLYFQS | area with substrate ELLYFQS | area with substrate EMLYFQS | area with substrate EPLYFQS | area with substrate EQLYFQS | area with substrate ERLYFQS | area with substrate ESLYFQS | area with substrate EVLYFQS | area with substrate EWLYFQS | area with substrate EYLYFQS | area with substrate EDLYFQS | area with substrate ETLYFQS | area with substrate EFLYFQS |
| --- | --- | --- | --- | --- | --- | --- | --- | --- | --- | --- | --- | --- | --- | --- | --- | --- | --- | --- | --- |
| D161C | 0.0847 | 0.0759 | 0.0939 | 0.0746 | 0.0861 | 0.0834 | 0.0889 | 0.0681 | 0.0753 | 0.057 | 0.0871 | 0.0784 | 0.0982 | 0.0766 | 0.0893 | 0.0761 |  |  |  |
| D161K | 0.0538 | 0.0638 | 0.0673 | 0.0488 | 0.0621 | 0.0581 | 0.0646 | 0.0598 | 0.0578 | 0.067 | 0.0672 | 0.0693 | 0.0568 | 0.0578 | 0.0755 | 0.0516 | 0.0812 | 0.0637 |  |
| D161F | 0.055 | 0.0542 | 0.0397 |  | 0.0555 | 0.0606 | 0.0617 |  | 0.0527 |  | 0.0726 |  | 0.0602 | 0.0602 | 0.0501 | 0.0539 | 0.0486 |  |  |
| R204T | 0.136 | 0.0816 | 0.112 | 0.113 | 0.0585 | 0.116 | 0.0762 | 0.101 | 0.118 | 0.086 |  | 0.0868 | 0.0969 | 0.113 | 0.0901 | 0.157 | 0.0763 | 0.128 |  |
| H143C | 0.089 | 0.1 |  |  | 0.0762 |  | 0.0819 | 0.066 |  |  | 0.087 |  | 0.07 | 0.0716 | 0.0913 |  | 0.133 | 0.0788 |  |
| H143P | 0.051 | 0.0485 | 0.0558 | 0.0561 | 0.0471 | 0.0539 | 0.0546 | 0.0481 | 0.0597 | 0.0505 | 0.0513 |  | 0.0645 | 0.0427 | 0.0781 | 0.0766 | 0.0658 | 0.0548 |  |
| H143R | 0.0517 | 0.0495 | 0.0527 | 0.0587 | 0.0468 | 0.0525 | 0.0614 |  | 0.0549 | 0.114 | 0.048 | 0.0609 | 0.0584 | 0.0628 | 0.0676 | 0.0409 | 0.0743 | 0.0426 |  |
| P155A | 0.117 | 0.101 | 0.107 |  | 0.119 | 0.09 | 0.135 |  | 0.115 |  | 0.134 | 0.107 | 0.0966 | 0.0952 | 0.103 |  | 0.113 |  |  |
| P155L | 0.0656 | 0.059 |  |  | 0.0625 | 0.0651 | 0.0785 | 0.0676 | 0.0602 | 0.0573 | 0.0538 | 0.0446 | 0.0621 | 0.051 | 0.0579 | 0.0629 | 0.0586 |  | 0.0446 |
| V183T | 0.0991 |  | 0.117 | 0.133 | 0.11 | 0.0823 |  |  |  | 0.112 | 0.108 | 0.097 | 0.114 | 0.0921 | 0.0812 | 0.104 | 0.112 |  |  |
| T147E | 0.0606 | 0.0599 | 0.0499 | 0.0677 | 0.059 | 0.0595 |  | 0.0626 | 0.0668 | 0.0592 | 0.0538 | 0.0609 | 0.0534 | 0.069 | 0.0625 | 0.0481 |  |  |  |
| I164C | 0.0848 | 0.0898 | 0.0958 |  | 0.102 | 0.0927 | 0.0942 | 0.0785 | 0.0918 |  | 0.109 | 0.0865 | 0.0902 |  | 0.09 | 0.0742 |  |  | 0.102 |
| S169F | 0.0682 | 0.0752 | 0.0692 | 0.049 |  | 0.0505 |  | 0.0681 | 0.0599 | 0.0633 | 0.059 | 0.065 | 0.0771 |  | 0.0533 | 0.0424 | 0.0904 | 0.0767 |  |
| S169T | 0.14 | 0.108 | 0.176 | 0.101 | 0.147 | 0.109 | 0.0905 | 0.11 | 0.113 | 0.145 | 0.139 |  | 0.118 | 0.115 | 0.116 | 0.136 | 0.156 | 0.138 |  |
| L156W | 0.0497 | 0.0623 | 0.0601 | 0.0647 | 0.0781 | 0.0609 | 0.0628 | 0.0578 | 0.0541 | 0.0604 |  | 0.0489 | 0.0756 | 0.0568 | 0.0566 | 0.0465 | 0.0622 | 0.0601 |  |
| G166V | 0.0458 | 0.0293 | 0.0616 |  |  |  |  |  |  | 0.0544 | 0.0543 | 0.0511 | 0.0528 | 0.0645 |  | 0.0467 |  |  |  |
| F173D | 0.0603 | 0.0698 | 0.0676 | 0.0657 |  | 0.079 | 0.0698 | 0.0594 | 0.0646 | 0.0745 | 0.0871 | 0.0647 | 0.076 | 0.0728 | 0.0678 | 0.0923 | 0.0859 | 0.0702 |  |
| F173A | 0.079 | 0.0859 | 0.0973 |  | 0.0916 | 0.0875 | 0.0722 |  | 0.0849 | 0.0995 | 0.102 | 0.0759 | 0.0767 |  | 0.0773 | 0.0643 | 0.117 |  |  |
| N206H | 0.0632 | 0.0904 | 0.112 | 0.0863 | 0.118 | 0.0822 | 0.0832 |  | 0.104 | 0.12 | 0.12 | 0.118 | 0.0903 | 0.0773 | 0.0904 | 0.101 | 0.1 | 0.118 |  |
| F180C | 0.0968 | 0.0746 | 0.102 |  | 0.0706 |  | 0.0939 | 0.0803 | 0.0835 | 0.11 | 0.0922 | 0.0742 | 0.0774 | 0.0732 |  | 0.0634 |  | 0 |  |
| F180V | 0.0543 | 0.0553 | 0.0503 | 0.0591 |  | 0.075 | 0.0551 | 0.0568 | 0.0574 |  | 0.0634 | 0.0557 | 0.0587 | 0.0587 | 0.0546 |  | 0.0589 | 0.0543 |  |
| Q198I | 0.124 | 0.0871 |  | 0.0799 |  | 0.0763 | 0.0971 |  | 0.0998 | 0.121 | 0.078 | 0.088 | 0.0904 | 0.0799 | 0.0906 | 0.084 |  | 0.104 |  |
| N175C | 0.119 | 0.0928 | 0.0591 | 0.0934 | 0.115 |  |  | 0.123 | 0.0903 |  | 0.111 | 0.0869 | 0.0822 | 0.0968 |  |  | 0.0028 |  |  |
